Paper PMC4336329 (PLoS ONE, 2015)
In all, about 310,000 compounds went through this assay and about 14,000 (4.5%) showed an effect of 50% or more. Effects have a minus sign here. The list shows a part of the results.

What follows are compounds tested against human ether-à-go-go-related gene (hERG) potassium channel (human, UniProt Q12809) (assay: primary screen, population patch clamp on CHO cells stably expressing hERG).
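Also: peak tail current of the secondary pulse compared with the same well before compound.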

Sequence of human ether-à-go-go-related gene (hERG) potassium channel (Q12809 whole entry, looked up): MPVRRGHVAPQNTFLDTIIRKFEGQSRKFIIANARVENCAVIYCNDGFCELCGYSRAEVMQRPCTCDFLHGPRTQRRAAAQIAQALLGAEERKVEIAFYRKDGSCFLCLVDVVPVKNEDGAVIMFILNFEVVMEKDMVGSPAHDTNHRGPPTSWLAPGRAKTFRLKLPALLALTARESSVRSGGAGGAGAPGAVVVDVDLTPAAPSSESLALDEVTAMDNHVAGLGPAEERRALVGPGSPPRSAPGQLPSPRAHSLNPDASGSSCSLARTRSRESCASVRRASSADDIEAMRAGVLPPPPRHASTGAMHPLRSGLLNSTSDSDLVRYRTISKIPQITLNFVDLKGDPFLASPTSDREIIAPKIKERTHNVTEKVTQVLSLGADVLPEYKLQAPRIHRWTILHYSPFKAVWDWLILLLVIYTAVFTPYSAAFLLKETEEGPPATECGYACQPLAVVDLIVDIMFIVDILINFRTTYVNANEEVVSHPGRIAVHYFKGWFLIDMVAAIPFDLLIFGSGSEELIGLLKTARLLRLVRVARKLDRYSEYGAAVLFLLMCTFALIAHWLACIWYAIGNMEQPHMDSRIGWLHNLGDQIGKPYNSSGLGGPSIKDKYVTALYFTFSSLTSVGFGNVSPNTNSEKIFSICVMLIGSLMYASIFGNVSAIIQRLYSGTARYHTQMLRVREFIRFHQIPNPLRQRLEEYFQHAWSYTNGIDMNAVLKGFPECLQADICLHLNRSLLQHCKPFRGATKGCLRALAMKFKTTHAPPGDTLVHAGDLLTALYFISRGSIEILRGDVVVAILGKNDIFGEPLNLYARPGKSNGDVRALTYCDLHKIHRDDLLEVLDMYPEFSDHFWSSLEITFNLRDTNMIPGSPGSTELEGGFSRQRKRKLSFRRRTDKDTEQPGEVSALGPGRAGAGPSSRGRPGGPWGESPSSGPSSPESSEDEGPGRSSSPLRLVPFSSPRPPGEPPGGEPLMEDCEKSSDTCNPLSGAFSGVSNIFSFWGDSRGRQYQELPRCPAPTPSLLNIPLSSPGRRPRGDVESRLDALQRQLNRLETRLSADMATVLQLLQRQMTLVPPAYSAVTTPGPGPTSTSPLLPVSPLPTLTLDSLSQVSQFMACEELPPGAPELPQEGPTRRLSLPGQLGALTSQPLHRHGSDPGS

Row | Structure (SMILES) | hERG current change (%, negative = inhibition) at 10uM [%]
1 | O=C1CN(C(=O)COC(=O)CNS(=O)(=O)c2ccccc2)c2ccccc2N1 | 23.8
2 | CCOC(=O)c1c(C)c(C(=O)NCc2ccco2)c(C)n1Cc1ccccc1 | -1.22
3 | O=C(O)CC(NC(=O)C1CCCCC1)c1ccc(OC2CCCC2)cc1 (stereo not shown) | 8.05
4 | O=C(/C(N=Nc1cccc(C(F)(F)F)c1)=C(/O)c1cccs1)C(F)(F)F | 0.282
5 | COc1cc(C(=O)Nc2ccc3c(c2)ncn3C(C)(C)C)cc(OC)c1OC | 9.04
6 | Cc1cccc(-n2ncc3c(N4CCCc5ccccc54)ncnc32)c1 | -8.09
7 | O=C(O)CCn1c(SCc2cc(=O)n3ccccc3n2)nc2ccsc2c1=O | 26.7
8 | CC(C)(C)c1ccc(C(=O)NCC(=O)NCc2ccccn2)cc1 | -8.45
9 | COc1ccc(-c2csc3nc(C)nc(N4CCCCC4)c23)cc1OC | -7.85
10 | Fc1ccc(Cn2nnnc2C(c2ccc(F)cc2)N2CC=C(c3ccc(F)cc3)CC2)cc1 (stereo not shown) | -2.44
11 | CCOc1ccc2[nH]c(=O)c(C(c3nnnn3CC3CCCO3)N3CCc4ccccc4C3)cc2c1 (stereo not shown) | -27.9
12 | CCCOCC(O)COc1ccccc1C(=O)N1CCOCC1 (stereo not shown) | 10
13 | CCCCN(C)S(=O)(=O)c1ccc(C(=O)Nc2nnc(-c3ccco3)o2)cc1 | -7.77
14 | COc1ccc(N2CCN(CC(=O)Nc3ccc(C)c(C)c3)CC2)cc1 | -17.3
15 | CCOC(=O)c1cc(CC)sc1NC(=O)CCC(=O)O | 14.4
16 | CCn1c(O)c(C=NCCN2CCOCC2)sc1=S | -2.65
17 | CC/C(=N\NC(=S)Nc1ccc(OC)cc1)c1ccc(OC(F)F)cc1 | -4.32
18 | COC(=O)CNC(=O)COC(=O)/C=C/c1ccccc1[N+](=O)[O-] | -2.63
19 | NNC(=O)c1ccc(COCC(F)(F)F)cc1 | 12.6
20 | CC(C(=O)N1CCN(C2c3ccccc3-c3ccccc32)CC1)N1C(=O)c2ccccc2C1=O (stereo not shown) | -13.3
21 | S=C(NCc1ccccc1)NCc1ccccc1 | 7.96
22 | CCN(Cc1cc(=O)n2ccsc2n1)Cc1nc2ccccc2c(=O)[nH]1 | 0.658

Row | Structure (SMILES) | hERG current change (%, negative = inhibition) at 10uM [%]
23 | CC(=O)Oc1c(Cl)cc(Cl)cc1/C=C/c1ccc2ccccc2n1 | -3.87
24 | O=C(NNC(=O)NC1CCCCC1)NC1CCCCC1 | 17.8
25 | COc1ccc(NC(=S)N2CCN(C)CC2)cc1 | 11
26 | NS(=O)(=O)c1ccc(NC(=S)Nc2ccc(Br)c(Cl)c2)cc1 | 21.3
27 | Cc1c(C#N)c(O)[nH]c(=O)c1N=Nc1ccc(S(N)(=O)=O)cc1 | 13.9
28 | Nn1c(=O)c2ccccc2n2c(SCc3ccc(C(F)(F)F)cc3)nnc12 | -21.4
29 | CC(OC(=O)CCC1CCCC1)C(=O)Nc1ccccc1[N+](=O)[O-] (stereo not shown) | 4.42
30 | CC(C)c1ccc2oc(=O)cc(CN3CCCCC3)c2c1 | -12.8
31 | Cc1ccc(/C=N/N=C2/NC(=O)C(CC(=O)Nc3ccccc3)S2)o1 (stereo not shown) | 6.65
32 | Cc1ccc(S(=O)(=O)CC(=O)NCc2ccccc2)cc1 | 4.53
33 | CCC(CC)C(=O)Nc1cccc(C(=O)NCCc2ccc(S(N)(=O)=O)cc2)c1 | 12.9
34 | Nc1c(C(=O)Nc2ccc3c(c2)OCCO3)nnn1Cc1cccc(Cl)c1 | -8.28
35 | COc1ccc(-c2nnc(SCC(=O)O)n2C)cc1OC | 19.1
36 | CCOc1ccc(C(=O)CC(NCc2cccs2)C(=O)O)cc1 (stereo not shown) | 6.86
37 | CCOC(=O)Cc1nnc2c(Nc3ccc(C)cc3)nc3nonc3n12 | -5.67
38 | O=C(COC(=O)COc1ccccc1)Nc1ccc(Cl)cn1 | 7.56
39 | O=C(COC(=O)CNC(=O)c1ccccc1)Nc1nnc(-c2ccccc2)o1 | -0.688
40 | O=C(COc1c(F)c(F)cc(F)c1F)NC(=O)NC1CCCC1 | -0.615
41 | COCCOC(=O)c1c(NC(=O)CN2CCOCC2)sc(C(N)=O)c1C | -1.58
42 | O=C(c1cccc(-n2cccc2)c1)N1CCN(S(=O)(=O)c2ccc(F)cc2)CC1 | -34.7
43 | Cc1cccc2cc(C#N)c(SCC(=O)NNC(=O)Cc3ccccc3)nc12 | -8.94
44 | CCC(C(=O)O)N1C(=O)/C(=C/c2cccn2C)SC1=S (stereo not shown) | 12.9

Row | Structure (SMILES) | hERG current change (%, negative = inhibition) at 10uM [%]
45 | CC(=O)Nc1ccc(NS(=O)(=O)c2ccc3c(c2)oc(=O)n3C)cc1 | 20.2
46 | CCN(CC(=O)Nc1c(F)cccc1F)C(=O)C1CCN(C(=O)c2ccc(F)cc2)CC1 | 4.59
47 | O=[N+]([O-])/C(N=Nc1ccccc1)=N\Nc1ccccc1 | 29.9
48 | Cc1cc(C(=O)N2CCCC(Nc3ccc(C(C)C)cc3)C2)nn1C (stereo not shown) | -1.89
49 | CC(=O)Nc1ncc(Cc2ccc(Cl)cc2Cl)s1 | 11.1
50 | CC(=O)c1ccc(NC(=O)CSc2ccc3nnc(-c4cccnc4)n3n2)cc1 | -28.8
51 | Cl.Fc1ccccc1COc1ccc(Br)cc1CNCC1CCCO1 (stereo not shown) | -68.3
52 | Cc1ccc(-n2c(O)c(/C=N/NC(=O)c3ccncc3)c(=O)[nH]c2=O)cc1 | 1.07
53 | COc1ccc(CCN2CC(C(=O)O)CC2=O)cc1 (stereo not shown) | -5.27
54 | CCN(CC)c1ccc(NC(=O)COc2ccccc2C#N)cc1S(=O)(=O)Nc1ccc(OC)cc1 | 13
55 | CC(=O)N1CCN(c2ccc(NC(=O)c3ccc([N+](=O)[O-])o3)cc2Cl)CC1 | -50
56 | Cc1[nH]c2ccccc2c1/C=C/c1nc2ccccc2c(=O)n1-c1cccc([N+](=O)[O-])c1 | 10.3
57 | CCn1c(COc2ccccc2C)nnc1SCC(=O)N1CCCCC1 | 2
58 | Cc1[nH]c2ccccc2c1CCNCc1ccco1.Cl | 12.1
59 | CCn1c(=O)cc(SCC(=O)N2CCN(C)CC2)c2ccccc21 | 6.22
60 | COc1cc(C2C(C(=O)OC(C)C)=C(C)Nc3ncnn32)cc(OC)c1OC (stereo not shown) | -31.8
61 | COc1ccc(Cl)cc1C(=O)NNC(=S)NC1CCCC1 | 6.8
62 | CNc1ccc(/C=C/C(=O)c2ccc(C)cc2)cc1[N+](=O)[O-] | -6.99
63 | CCOC(=O)C1CCN(C(=O)Cn2nc(C)n3nc(-c4ccc(CC)cc4)cc3c2=O)CC1 | 5.33
64 | CC1CCN(C(=O)C2CCN(S(=O)(=O)c3ccc4c(c3)CC(C)N4C(=O)C3CC3)CC2)CC1 (stereo not shown) | -8.47
65 | O=[N+]([O-])c1cccc(-n2cccc2/C=N/Nc2nc(N3CCCCC3)nc(N3CCCCC3)n2)c1 | 14.6
66 | CC1CN(c2oc(-c3cccs3)nc2C#N)CC(C)O1 (stereo not shown) | -21.5

Row | Structure (SMILES) | hERG current change (%, negative = inhibition) at 10uM [%]
67 | Brc1ccc(-c2cnc3n2CCCC3)cc1 | -34.2
68 | Cc1cc(Br)ccc1NC(=O)c1sc2ncn(CC(=O)N3CCN(c4ccccn4)CC3)c(=O)c2c1C | -4.32
69 | Cc1cc(OCC(=O)NCc2cccnc2)c2c3c(c(=O)oc2c1)CCCC3 | -40.1
70 | COc1ccc(C)cc1NC(=O)c1ccc(-c2ccc(C(C)=O)cc2)o1 | 2.67
71 | Cc1ccc(S(=O)(=O)N2CCCCC2)cc1C(=O)OCC(=O)NC(=O)NC12CC3CC(CC(C3)C1)C2 | 8.53
72 | COCCCN(C(=S)Nc1c(C)cc(C)cc1C)C(C)c1ccncc1 (stereo not shown) | -18.4
73 | COC(=O)c1[nH]c2cc(OC)ccc2c1NC(=O)CCN1CCN(c2cccc(C)c2C)CC1 | -16.4
74 | COc1cccc(OC)c1OCCCNC1CCCC1.O=C(O)C(=O)O | -7.84
75 | COc1cccc(C2(O)CCN(CC(=O)NCC3CC3)CC2)c1 | -4.37
76 | O=c1c(=O)n2c(nn1Cc1ccc(F)cc1)sc1ccccc12 | 13
77 | CN(C)c1ccc(P(=O)(OCc2ccccc2)C(O)c2ccncc2)cc1 (stereo not shown) | -9.12
78 | O=c1c2c([nH]c3ccccc13)CCC2 | 18.3
79 | COc1ccc(C(=O)NCCn2cc(SCC(=O)Nc3cc(C)on3)c3ccccc32)cc1OC | -12.3
80 | O=C(Cc1c(Cl)cccc1Cl)OCc1ccccn1 | -0.436
81 | Cc1ccc(C(=O)NCC2CCCO2)cc1S(=O)(=O)N1CCCCC1 (stereo not shown) | -10
82 | COc1ccc(S(=O)(=O)Nc2cc(SCC(=O)O)c(O)c3ccccc23)cc1 | 12.4
83 | O=C(CSc1nc2ccc(Cl)cc2[nH]1)Nc1ccc2[nH]c(=O)[nH]c2c1 | 16.1
84 | CCOc1ncccc1C(=O)NC(C)CCc1ccccc1 (stereo not shown) | -6.92
85 | CCc1[nH]c(C(=O)O)c(C)c1C(=O)OC | 4.54
86 | O=C(CC(c1ccco1)S(=O)(=O)c1ccccc1)c1ccc(F)cc1 (stereo not shown) | 1.66
87 | C=CCSc1nc2ccsc2c(=O)n1-c1cccnc1 | -8.97
88 | NC(=O)CC(NC(=O)Cc1ccc(Br)cc1)c1ccc(NCC2CC2)c([N+](=O)[O-])c1 (stereo not shown) | -16.3
